In the supplement of paper PMC10338343:
± gives the standard deviation. Only a part is listed here, and it is no random draw.

Tested on: MIWI (PIWIL1) piRISC loaded with L1MC piRNA (30 nt)
Assay: pre-steady-state target cleavage rate (min^-1); MIWI and MILI are mouse PIWI proteins and EfPiwi is from a freshwater sponge; tags in brackets are library labels; higher = faster piRNA-guided slicing of the target
Settings: guide: L1MC piRNA 5'p-UAACUAAAUACUAUGCAAGCUGUAGGUCCU
Summary of the method: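 Cleave-'n-Seq reactions paired 0.1 nM transcribed, DNA-blocked target RNA library with 1 nM active affinity-purified piRISC holding one synthetic guide, plus or minus 500 nM GTSF1 partner protein, in HEPES–potassium acetate buffer at 33 °C for 0–8 or 0–960 min. After sequencing of uncleaved targets and normalisation to depth and weakly complementary targets, the pre-steady-state cleavage rate was taken from a burst-and-steady-state fit. Three trials were pooled, and k3 was capped at 0.0001 min^-1.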

[1] = auxiliary factor: 500 nM mouse GTSF1
[2] = auxiliary factor: none (no GTSF1)

UCCUGGAUGUCCUGGCAUAGUAUUUAGUUA
pre-steady-state target cleavage rate [1]: 0.00913 ± 0.0029 | pre-steady-state target cleavage rate [2]: 0.00347 ± 0.0027

UCCUGGUAGUGCUUGCAUAGUAUUUAGAAA
pre-steady-state target cleavage rate [1]: 0.0731 ± 0.014 | pre-steady-state target cleavage rate [2]: 0.00718 ± 0.0032

UCCUGGAACACCUUGCAUAGUAAUUAGUUA
pre-steady-state target cleavage rate [1]: 0.309 ± 0.043 | pre-steady-state target cleavage rate [2]: 0.0109 ± 0.0031

UGACCUACAGCUUGCAUAGUAUUUAGUUA
pre-steady-state target cleavage rate [1]: 1.57 ± 0.061 | pre-steady-state target cleavage rate [2]: 0.0842 ± 0.016

UCCUGCUACAGCUUGCAUUGUUUUUAGUUA
pre-steady-state target cleavage rate [1]: 0.0845 ± 0.0095 | pre-steady-state target cleavage rate [2]: 0.00988 ± 0.0021

UCCUGGAUGAGCUUGCAUACUAUUUAGAAA
pre-steady-state target cleavage rate [1]: 0.0176 ± 0.007 | pre-steady-state target cleavage rate [2]: 0.00369 ± 0.0034

AGGACCUACAGCUUGCUAUGUAUUUAGUUA
pre-steady-state target cleavage rate [1]: 0.189 ± 0.022 | pre-steady-state target cleavage rate [2]: 0.00595 ± 0.0018

UCCUCCUAUAGCUUGCAUAGUAUUUAGUUA
pre-steady-state target cleavage rate [1]: 0.705 ± 0.024 | pre-steady-state target cleavage rate [2]: 0.0464 ± 0.0082

UCGACCUACAGCUUGCAUAGUAUUUACUUA
pre-steady-state target cleavage rate [1]: 0.373 ± 0.03 | pre-steady-state target cleavage rate [2]: 0.0486 ± 0.0097

UCCUCCUACAGCUUGCAAACUAUUUAGUUA
pre-steady-state target cleavage rate [1]: 0.312 ± 0.019 | pre-steady-state target cleavage rate [2]: 0.0071 ± 0.0021

UCCUGGAUGAGCUUGCAUAGUAAUUACUUA
pre-steady-state target cleavage rate [1]: 0.0406 ± 0.014 | pre-steady-state target cleavage rate [2]: 0.00637 ± 0.0034

UCCUGGAUGUCCUUGCAUAGUAUUUAUUUA
pre-steady-state target cleavage rate [1]: 0.0276 ± 0.0078 | pre-steady-state target cleavage rate [2]: 0.00546 ± 0.0019

UCCUGGUACAGCUUGCAUAGUUAUUUAGUUA
pre-steady-state target cleavage rate [1]: 0.0264 ± 0.0086 | pre-steady-state target cleavage rate [2]: 0.00505 ± 0.0031

UCCUGGAUGAGCUUGCAUUCUAUUUAGUUA
pre-steady-state target cleavage rate [1]: 0.0299 ± 0.0055 | pre-steady-state target cleavage rate [2]: 0.00511 ± 0.0033

UCCUGCUACAGGUUGCAUACUAUUUAGUUA
pre-steady-state target cleavage rate [1]: 0.255 ± 0.026 | pre-steady-state target cleavage rate [2]: 0.0186 ± 0.0041

UCCACCUACAGCUUGCAUACUAUUAAGUUA
pre-steady-state target cleavage rate [1]: 0.158 ± 0.021 | pre-steady-state target cleavage rate [2]: 0.00936 ± 0.0018

UCCUGGAACAGGUUGCAUAGUAUUAAGUUA
pre-steady-state target cleavage rate [1]: 0.518 ± 0.052 | pre-steady-state target cleavage rate [2]: 0.00635 ± 0.0026

UCCUGGAUCAGCUUGCUUAGUAUUUAGUAA
pre-steady-state target cleavage rate [1]: 0.541 ± 0.037 | pre-steady-state target cleavage rate [2]: 0.0113 ± 0.0032

AGGACCUAUAGCUUGCAUAGUAUUUAGUUA
pre-steady-state target cleavage rate [1]: 1.06 ± 0.053 | pre-steady-state target cleavage rate [2]: 0.0641 ± 0.012

UCCUGGUACAGGUUGCAUAGUUUUUAGUUA
pre-steady-state target cleavage rate [1]: 0.153 ± 0.028 | pre-steady-state target cleavage rate [2]: 0.0167 ± 0.0069

UCCACGUUCAGCUUGCAUAGUAUUUAGUUA
pre-steady-state target cleavage rate [1]: 1.42 ± 0.057 | pre-steady-state target cleavage rate [2]: 0.0658 ± 0.011

UCGACCUACAGCUUGCAUAGUAUUUAGUCUA
pre-steady-state target cleavage rate [1]: 0.165 ± 0.024 | pre-steady-state target cleavage rate [2]: 0.0179 ± 0.0043

UCCUCCUACAGCUUCCUUAGUAUUUAGUUA
pre-steady-state target cleavage rate [1]: 0.357 ± 0.037 | pre-steady-state target cleavage rate [2]: 0.00197 ± 0.0016

UCGACGUACAGCUUGCAUAGAAUUUAGUUA
pre-steady-state target cleavage rate [1]: 0.406 ± 0.019 | pre-steady-state target cleavage rate [2]: 0.0269 ± 0.0061

UCCUGGUUCUGCUUGCAUAGUAUUUAGUUA
pre-steady-state target cleavage rate [1]: 0.785 ± 0.049 | pre-steady-state target cleavage rate [2]: 0.0365 ± 0.0078

UCCUGGAUCUGCUAGCAUAGUAUUUAGUUA
pre-steady-state target cleavage rate [1]: 0.302 ± 0.032 | pre-steady-state target cleavage rate [2]: 0.00579 ± 0.0027

UCGACCUUCAGCAUGCAUAGUAUUUAGUUA
pre-steady-state target cleavage rate [1]: 1.24 ± 0.05 | pre-steady-state target cleavage rate [2]: 0.0242 ± 0.0047

UCCACCUACAGCUUGCAUAGAAUUUUGUUA
pre-steady-state target cleavage rate [1]: 0.324 ± 0.048 | pre-steady-state target cleavage rate [2]: 0.0105 ± 0.003

AGGACCUACAGCUUGCAUAGAAUUUACUUA
pre-steady-state target cleavage rate [1]: 0.398 ± 0.051 | pre-steady-state target cleavage rate [2]: 0.0283 ± 0.0085

UCCUGGAACAGCUUGCAAAGUAUUUACAAA
pre-steady-state target cleavage rate [1]: 0.149 ± 0.03 | pre-steady-state target cleavage rate [2]: 0.00442 ± 0.0026

UCCACCUACAGCUUGCAAAGUUUUUAGUUA
pre-steady-state target cleavage rate [1]: 0.286 ± 0.019 | pre-steady-state target cleavage rate [2]: 0.0128 ± 0.0027

UCCACCUACAGCUUGCAAAGUAUUUACUUA
pre-steady-state target cleavage rate [1]: 0.351 ± 0.036 | pre-steady-state target cleavage rate [2]: 0.0148 ± 0.0027

AGGACCAACAGCUAGCAUAGUAUUUAGUUA
pre-steady-state target cleavage rate [1]: 1.08 ± 0.052 | pre-steady-state target cleavage rate [2]: 0.038 ± 0.01

UCCACCUACAGCUUGCAUAGUAUUUGAGUUA
pre-steady-state target cleavage rate [1]: 0.506 ± 0.046 | pre-steady-state target cleavage rate [2]: 0.0232 ± 0.005

UCCUGGAUGUGCUUGCAUAGUUUUUAGAUA
pre-steady-state target cleavage rate [1]: 0.00724 ± 0.0061 | pre-steady-state target cleavage rate [2]: 0.00466 ± 0.0025

AGCACCUACUGCUUGCAUAGUAUUUAGUUA
pre-steady-state target cleavage rate [1]: 0.881 ± 0.076 | pre-steady-state target cleavage rate [2]: 0.0651 ± 0.013

UGCACCUACAGCUUGCAUAGUUUUUAGUUA
pre-steady-state target cleavage rate [1]: 0.45 ± 0.041 | pre-steady-state target cleavage rate [2]: 0.0504 ± 0.011

UCCACCUACAGCUUGCUUACUAUUUAGUUA
pre-steady-state target cleavage rate [1]: 0.389 ± 0.026 | pre-steady-state target cleavage rate [2]: 0.00971 ± 0.0021

UCCUGGAAUCAGCUUGCAUAGUAUUUAGUUA
pre-steady-state target cleavage rate [1]: 1.1 ± 0.055 | pre-steady-state target cleavage rate [2]: 0.0857 ± 0.019

UCCACCUACAGGUUGCUUAGUAUUUAGUUA
pre-steady-state target cleavage rate [1]: 0.979 ± 0.053 | pre-steady-state target cleavage rate [2]: 0.0129 ± 0.003

UGGAGCUACAGCUUGCAUAGUAUUUUGUUA
pre-steady-state target cleavage rate [1]: 0.992 ± 0.05 | pre-steady-state target cleavage rate [2]: 0.0525 ± 0.0077

UGCACCUACAGCUUGCAUUGUAUUUAGUUA
pre-steady-state target cleavage rate [1]: 0.808 ± 0.057 | pre-steady-state target cleavage rate [2]: 0.0286 ± 0.0068

UCGACCUAGUGCUUGCAUAGUAUUUAGAAA
pre-steady-state target cleavage rate [1]: 0.139 ± 0.019 | pre-steady-state target cleavage rate [2]: 0.00515 ± 0.0018

UCCUGCUACAGCUUGCAAAGUAUAUAGUUA
pre-steady-state target cleavage rate [1]: 0.311 ± 0.042 | pre-steady-state target cleavage rate [2]: 0.0109 ± 0.0021

UGGUCCUACAGCUUGCAUAGUAUUUUCAAA
pre-steady-state target cleavage rate [1]: 0.258 ± 0.04 | pre-steady-state target cleavage rate [2]: 0.00588 ± 0.0032

UCCUGGAUGAGCUUGCAUAGUAUUUAAGUUA
pre-steady-state target cleavage rate [1]: 0.505 ± 0.049 | pre-steady-state target cleavage rate [2]: 0.0339 ± 0.012

UCCUGGAUGAGCUUGCAUAGUAUAUAGAUA
pre-steady-state target cleavage rate [1]: 0.11 ± 0.023 | pre-steady-state target cleavage rate [2]: 0.00493 ± 0.0023

UGGACCUACAGCUUGCAUAGUAUAUUGUUA
pre-steady-state target cleavage rate [1]: 0.403 ± 0.04 | pre-steady-state target cleavage rate [2]: 0.0176 ± 0.0033

UCGACCAACAGCUUGCUUAGUAUUUAGUUA
pre-steady-state target cleavage rate [1]: 1.47 ± 0.05 | pre-steady-state target cleavage rate [2]: 0.0416 ± 0.0081

UCCUGCUACAGCUUGCAUAGUAUGUUAGUUA
pre-steady-state target cleavage rate [1]: 0.213 ± 0.034 | pre-steady-state target cleavage rate [2]: 0.00451 ± 0.0022

UCCUGCUACAGCAUGGAUAGUAUUUAGUUA
pre-steady-state target cleavage rate [1]: 1.13 ± 0.15 | pre-steady-state target cleavage rate [2]: 0.015 ± 0.0025

UCGUCCUACAGCUUGGAUAGUAUUUAGUUA
pre-steady-state target cleavage rate [1]: 1.56 ± 0.048 | pre-steady-state target cleavage rate [2]: 0.0586 ± 0.0084

UGGACCUACAGCUUGCAUACUAUUUUGUUA
pre-steady-state target cleavage rate [1]: 0.145 ± 0.014 | pre-steady-state target cleavage rate [2]: 0.0155 ± 0.0039

UCCUCCUACAGCUUGCAGAGUAUUUAGUUA
pre-steady-state target cleavage rate [1]: 0.892 ± 0.063 | pre-steady-state target cleavage rate [2]: 0.0211 ± 0.0046

UCCUGGAACAGCUUGCUAAGUAUUUAGUAA
pre-steady-state target cleavage rate [1]: 0.0228 ± 0.0071 | pre-steady-state target cleavage rate [2]: 0.00385 ± 0.0023

UCCACCUACUGCUUGCAUAGUAUUUAGUAA
pre-steady-state target cleavage rate [1]: 0.29 ± 0.044 | pre-steady-state target cleavage rate [2]: 0.0159 ± 0.0021

UCCUGCUGACAGCUUGCAUAGUAUUUAGUUA
pre-steady-state target cleavage rate [1]: 1.07 ± 0.05 | pre-steady-state target cleavage rate [2]: 0.061 ± 0.011

UGGACCAACAGCUUGCAUAGUAUUUAGAAA
pre-steady-state target cleavage rate [1]: 0.403 ± 0.034 | pre-steady-state target cleavage rate [2]: 0.0158 ± 0.0043

UCCUGGAUCAGCUUGCAUAGUUAAUAGUAA
pre-steady-state target cleavage rate [1]: 0.013 ± 0.0059 | pre-steady-state target cleavage rate [2]: 0.00328 ± 0.003

UCCUGGUACAGCUUGCAUAGUUUUUACUUA
pre-steady-state target cleavage rate [1]: 0.0344 ± 0.015 | pre-steady-state target cleavage rate [2]: 0.00569 ± 0.0026
